Test results from US8106205B2, “N[S(4-aryl-triazol-3-yl)α-mercaptoacetyl]p-amino benzoic acids as HIV reverse transcriptase inhibitors” (priority 2004, dated 2012).
Read-outs that look alike come from different tables or passages of the source.

Experiments:
[1] = test system: Y181C mutant HIV; assay: microbe, parasite or virus in culture
From the text: (§1) With respect to suitable concentrations of contemplated compounds in pharmaceutical compositions, it should be appreciated that a person of ordinary skill in the art can readily adjust the amount of the compound to achieve inhibition of the reverse transcriptase and/or HIV replication. […] Alternatively, inhibition of the reverse transcriptase may be monitored in vivo using RT-PCR to determine the amount of copies of viral DNA and/or RNA in blood or lymph nodes (containing HIV infected cells). It is generally contemplated that suitable concentrations will achieve a serum concentration of between 1 nM and 100 uM, and in some cases between 0.01 nM and 1 nM).
(§2) Compounds of the invention were tested against the wild-type and four mutant HIV reverse transcriptases. The results are listed in Table 1 and Table 2 as EC50 (nM) and IC50 (nM). In Tables 1 and 2, A represents <50 nM, B is between 50 and 100 nM, and C is >100 nM. ND is not determined.

[2] = test system: Y188L mutant HIV; assay: microbe, parasite or virus in culture
From the text: as §1, §2

[3] = molecular target: T1, Y181C RT (Human immunodeficiency virus type 1 group M subtype B, UniProt P04585, Y768C); assay: biochemical; set-up: species or system HIV
T1 construct: tested against the wild-type and four mutant HIV reverse transcriptases
Description: as §2

[4] = molecular target: T2, Y188L RT (Human immunodeficiency virus type 1 group M subtype B, UniProt P04585, Y775L); assay: biochemical; set-up: species or system HIV
T2 construct: tested against the wild-type and four mutant HIV reverse transcriptases
Description: as §2

[5] = Table 2, Y181C mutant, read-out: EC50 Y181C
[6] = Table 2, Y188L mutant, read-out: EC50 Y188L
[7] = Table 2, Y181C RT, read-out: IC50 Y181C RT
[8] = Table 2, Y188L RT, read-out: IC50 Y188L RT
[9] = Human immunodeficiency virus 1, read-out: EC50 Y181C (nM)
[10] = Human immunodeficiency virus 1, read-out: EC50 Y188L (nM)
[11] = Human immunodeficiency virus 1, read-out: EC50 Y181C
[12] = Human immunodeficiency virus 1, read-out: EC50 Y188L

For `NS(=O)(=O)c1ccc(NC(=O)CSc2nnc(Br)n2-c2c(Cl)cc(C3CCC3)c3ccccc23)c(Cl)c1` (single isomer, unassigned) [Compound 68], the EC50 [1, 5] was under 50 nM, the EC50 [2, 6] was under 50 nM and the IC50 [3, 7] was under 50 nM. For the same compound, the IC50 [4, 8] was 50 to 100 nM.

`COc1ccc2c(C)ccc(-n3c(Br)nnc3SCC(=O)Nc3ccc(C(=O)O)cc3Cl)c2c1` [Compound 15] was tested, and the EC50 [1, 9] was under 50 nM, the EC50 [2, 10] was under 50 nM and the IC50 [3] was under 50 nM. The IC50 [4] was under 50 nM.

`Cc1cc(C2CC2)cc(Cl)c1-n1c(Br)nnc1SCC(=O)Nc1ccc(C(=O)O)cc1Cl` [Compound 20] was tested, and the EC50 [1, 9] was under 50 nM, the EC50 [2, 10] was under 50 nM and the IC50 [3] was under 50 nM. For the same compound, the IC50 [4] was over 100 nM.

Work on `CC(Sc1nnc(Br)n1-c1ccc(C2CC2)c2ccccc12)C(=O)Nc1ccc(S(N)(=O)=O)cc1Cl` (centres unmarked) [Compound 44] yielded an EC50 [1, 11] of 50 to 100 nM, an EC50 [2, 12] of over 100 nM and an IC50 [3] of 50 to 100 nM. It also gave an IC50 [4] of over 100 nM.

For `NS(=O)(=O)c1ccc(NC(=O)CSc2nnc(Br)n2-c2ccc(C3CC3)c3ccccc23)c(Cl)c1` [Compound 45], the EC50 [1, 5] was 50 to 100 nM, the EC50 [2, 6] was over 100 nM and the IC50 [3, 7] was 50 to 100 nM. It also gave an IC50 [4, 8] of over 100 nM.

`NS(=O)(=O)c1ccc(NC(=O)CSc2nnc(Br)n2-c2ccc(C3CC3)cc2)c(Cl)c1` [Compound 46] gave an EC50 [1, 11] of under 50 nM, an EC50 [2, 12] of over 100 nM and an IC50 [3] of under 50 nM. For the same compound, the IC50 [4] was over 100 nM.

`CC(=O)OC(C)OC(=O)NS(=O)(=O)c1ccc(NC(=O)CSc2nnc(Br)n2-c2ccc(C3CC3)c3ccccc23)c(Cl)c1` (centres unmarked) [Compound 47] gave an EC50 [1, 5] of under 50 nM, an EC50 [2, 6] of under 50 nM and an IC50 [3, 7] of under 50 nM. For the same compound, the IC50 [4, 8] was over 100 nM.

For `CC(=O)NS(=O)(=O)c1ccc(NC(=O)CSc2nnc(Br)n2-c2ccc(C3CC3)c3ccccc23)c(Cl)c1` [Compound 48], the EC50 [1, 5] was 50 to 100 nM, the EC50 [2, 6] was over 100 nM and the IC50 [3, 7] was under 50 nM. It also gave an IC50 [4, 8] of over 100 nM.

`CCc1ccc(-n2c(Br)nnc2SCC(=O)Nc2ccc(S(N)(=O)=O)cc2Cl)c2c1CCCC2` [Compound 50] was tested, and the EC50 [1, 5] was under 50 nM, the EC50 [2, 6] was under 50 nM and the IC50 [3, 7] was under 50 nM. It also gave an IC50 [4, 8] of 50 to 100 nM.

In the case of `Cc1cc(S(N)(=O)=O)ccc1NC(=O)CSc1nnc(Br)n1-c1ccc(C)c2c1CCCC2` [Compound 51], the EC50 [1, 5] is reported as under 50 nM, the EC50 [2, 6] is reported as under 50 nM and the IC50 [3, 7] is reported as under 50 nM. For the same compound, the IC50 [4, 8] was 50 to 100 nM.

With `Cc1ccc2c(C)ccc(-n3c(Br)nnc3SCC(=O)Nc3ccc(S(N)(=O)=O)cc3Br)c2c1` [Compound 52] the EC50 [1, 5] was under 50 nM, the EC50 [2, 6] was under 50 nM and the IC50 [3, 7] was under 50 nM. It also gave an IC50 [4, 8] of 50 to 100 nM.

Compound `Cc1cc(C)c2ccccc2c1-n1c(CF)nnc1SCC(=O)Nc1ccc(S(N)(=O)=O)cc1Cl` [Compound 53] has an EC50 [1, 5] of under 50 nM, an EC50 [2, 6] of under 50 nM and an IC50 [3, 7] of under 50 nM. The IC50 [4, 8] was over 100 nM.

For `Cc1cc(C)c(-n2c(SCC(=O)Nc3ccc(S(N)(=O)=O)cc3Cl)nnc2C(F)(F)F)c2c1CCCC2` [Compound 54], the EC50 [1, 11] was under 50 nM, the EC50 [2, 12] was under 50 nM and the IC50 [3] was over 100 nM. The IC50 [4] was over 100 nM.

`CCCc1ccc(-n2c(Br)nnc2SCC(=O)Nc2ccc(S(N)(=O)=O)cc2Cl)c2ccccc12` [Compound 55] was tested, and the EC50 [1, 5] was under 50 nM, the EC50 [2, 6] was under 50 nM and the IC50 [3, 7] was under 50 nM. The IC50 [4, 8] was over 100 nM.

`CCCc1ccc(-n2c(Br)nnc2SCC(=O)Nc2ccc(S(N)(=O)=O)cc2C)c2ccccc12` [Compound 56] showed an EC50 [1, 5] of under 50 nM, an EC50 [2, 6] of under 50 nM and an IC50 [3, 7] of under 50 nM. The IC50 [4, 8] was over 100 nM.

In the case of `CCc1ccc(-n2c(Br)nnc2SCC(=O)Nc2ccc(S(N)(=O)=O)cc2Cl)c2ccccc12` [Compound 57], the EC50 [1, 5] is reported as under 50 nM, the EC50 [2, 6] is reported as under 50 nM and the IC50 [3, 7] is reported as under 50 nM. The IC50 [4, 8] was 50 to 100 nM.

`CCCC(=O)NS(=O)(=O)c1ccc(NC(=O)CSc2nnc(Br)n2-c2ccc(C3CC3)c3ccccc23)c(Cl)c1` [Compound 58] showed an EC50 [1, 11] of under 50 nM, an EC50 [2, 12] of under 50 nM and an IC50 [3] of under 50 nM. The IC50 [4] was over 100 nM.

Work on `N[C@@H](CC(=O)NS(=O)(=O)c1ccc(NC(=O)CSc2nnc(Cl)n2-c2ccc(C3CC3)c3ccccc23)c(Cl)c1)C(=O)O` [Compound 59] yielded an EC50 [1, 5] of under 50 nM, an EC50 [2, 6] of under 50 nM and an IC50 [3, 7] of under 50 nM. It also gave an IC50 [4, 8] of over 100 nM.

`NCCC[C@@H](N)C(=O)NS(=O)(=O)c1ccc(NC(=O)CSc2nnc(Br)n2-c2ccc(C3CC3)c3ccccc23)c(Cl)c1` [Compound 60] showed an EC50 [1, 5] of under 50 nM, an EC50 [2, 6] of under 50 nM and an IC50 [3, 7] of under 50 nM. For the same compound, the IC50 [4, 8] was over 100 nM.

`Cc1cc(C2CC2)ccc1-n1c(Br)nnc1SCC(=O)Nc1ccc(S(N)(=O)=O)cc1Cl` [Compound 61] showed an EC50 [1, 5] of under 50 nM, an EC50 [2, 6] of under 50 nM and an IC50 [3, 7] of under 50 nM. For the same compound, the IC50 [4, 8] was over 100 nM.

For `NCCC(N)C(=O)NS(=O)(=O)c1ccc(NC(=O)CSc2nnc(Br)n2-c2ccc(C3CC3)c3ccccc23)c(Cl)c1` (centres unmarked) [Compound 62], the EC50 [1, 5] was under 50 nM, the EC50 [2, 6] was under 50 nM and the IC50 [3, 7] was under 50 nM. For the same compound, the IC50 [4, 8] was over 100 nM.

Compound `N[C@@H](CC(=O)NS(=O)(=O)c1ccc(NC(=O)CSc2nnc(Br)n2-c2ccc(C3CC3)c3ccccc23)c(Cl)c1)C(=O)O` [Compound 63] has an EC50 [1, 5] of under 50 nM, an EC50 [2, 6] of 50 to 100 nM and an IC50 [3, 7] of under 50 nM. The IC50 [4, 8] was over 100 nM.

Compound `N[C@@H](CCC(=O)NS(=O)(=O)c1ccc(NC(=O)CSc2nnc(Br)n2-c2ccc(C3CC3)c3ccccc23)c(Cl)c1)C(=O)O` [Compound 64] has an EC50 [1, 5] of under 50 nM, an EC50 [2, 6] of under 50 nM and an IC50 [3, 7] of under 50 nM. For the same compound, the IC50 [4, 8] was over 100 nM.

Work on `NS(=O)(=O)c1ccc(NC(=O)CSc2nnc(Cl)n2-c2ccc(C3CC3)c3ccccc23)c(Cl)c1` [Compound 65] yielded an EC50 [1, 5] of under 50 nM, an EC50 [2, 6] of under 50 nM and an IC50 [3, 7] of under 50 nM. The IC50 [4, 8] was over 100 nM.

With `NS(=O)(=O)c1ccc(NC(=O)CSc2nnc(Br)n2-c2ccc(C3CC3)cc2OC(F)(F)F)c(Cl)c1` [Compound 66] the EC50 [1, 11] was under 50 nM, the EC50 [2, 12] was 50 to 100 nM and the IC50 [3] was under 50 nM. It also gave an IC50 [4] of over 100 nM.

`COCCC(=O)NS(=O)(=O)c1ccc(NC(=O)CSc2nnc(Br)n2-c2ccc(C3CC3)c3ccccc23)c(Cl)c1` [Compound 67] showed an EC50 [1, 11] of under 50 nM, an EC50 [2, 12] of over 100 nM and an IC50 [3] of under 50 nM. It also gave an IC50 [4] of over 100 nM.

In the case of `Cc1cc(C2CC2)cc(Cl)c1-n1c(Br)nnc1SCC(=O)Nc1ccc(S(N)(=O)=O)cc1Cl` [Compound 70], the EC50 [1, 11] is reported as under 50 nM, the EC50 [2, 12] is reported as under 50 nM and the IC50 [3] is reported as under 50 nM. It also gave an IC50 [4] of over 100 nM.

`O=C(O)CCC(=O)NS(=O)(=O)c1ccc(NC(=O)CSc2nnc(Br)n2-c2ccc(C3CC3)c3ccccc23)c(Cl)c1` [Compound 71] gave an EC50 [1, 5] of over 100 nM, an EC50 [2, 6] of over 100 nM and an IC50 [3, 7] of under 50 nM. It also gave an IC50 [4, 8] of over 100 nM.

`Cc1cc(S(N)(=O)=O)ccc1NC(=O)CSc1nnc(Br)n1-c1ccc(C2CCC2)c2ccccc12` [Compound 72] was tested, and the EC50 [1, 11] was under 50 nM, the EC50 [2, 12] was under 50 nM and the IC50 [3] was under 50 nM. The IC50 [4] was over 100 nM.

For `NS(=O)(=O)c1ccc(NC(=O)CSc2nnc(Br)n2-c2ccc(C3CCC3)c3ccccc23)c(Cl)c1` [Compound 73], the EC50 [1, 5] was under 50 nM, the EC50 [2, 6] was under 50 nM and the IC50 [3, 7] was under 50 nM. It also gave an IC50 [4, 8] of under 50 nM.

`CCCCC(=O)NS(=O)(=O)c1ccc(NC(=O)CSc2nnc(Br)n2-c2ccc(C3CC3)c3ccccc23)c(Cl)c1` [Compound 74] showed an EC50 [1, 5] of under 50 nM, an EC50 [2, 6] of over 100 nM and an IC50 [3, 7] of under 50 nM. The IC50 [4, 8] was over 100 nM.

With `CCCCCC(=O)NS(=O)(=O)c1ccc(NC(=O)CSc2nnc(Br)n2-c2ccc(C3CC3)c3ccccc23)c(Cl)c1` [Compound 75] the EC50 [1, 5] was under 50 nM, the EC50 [2, 6] was over 100 nM and the IC50 [3, 7] was under 50 nM. For the same compound, the IC50 [4, 8] was over 100 nM.

Work on `N#Cc1cccc2c(-n3c(SCC(=O)Nc4ccc(S(N)(=O)=O)cc4Cl)nnc3C(F)F)cccc12` [Compound 76] yielded an EC50 [1, 11] of under 50 nM, an EC50 [2, 12] of over 100 nM and an IC50 [3] of over 100 nM. It also gave an IC50 [4] of over 100 nM.

`Cc1cc(S(N)(=O)=O)ccc1NC(=O)CSc1nnc(C(F)F)n1-c1cccc2c(C#N)cccc12` [Compound 77] showed an IC50 [3] of over 100 nM and an IC50 [4] of over 100 nM.
